The values that follow come from the RNAGym collection of RNA variant scans (doi:10.7554/elife.90254).

First the molecules themselves.
B1: OR4K15 (parent)
chain: GUUAACGGUCAUAGGCCAUGGAAACUAGGAGCACCAUUUCGCUGCCAGUGAAGAAAUGAACAAAGAAAAUCUGGGCCAGGCAGGCAUCAAAAGAAAUAGUCUUGCGCUCAACCAGAAAGUCUGUAAUCAUUUUAAGGGUA

The source gives no read counts; variants with many changes may rest on few reads.

The variants in this series derive from B1. Kind of series: self-cleavage, relative activity (ratio to wild type); higher = more cleavage; in vitro, sequencing; the parent is a self-cleaving ribozyme.
Turning to A5G U19C A60G A118G, the self-cleavage amounted to 1.16.
As for C6U U9C A51G U57C A68G, the figure is 0.88; as for A5U A33G A56G A66G A86U U97C A98U A140U, 0.04.
For A5G A96G A118G U132C, the self-cleavage was 0.82.
To A5G A51G A78G belongs 0.39; to A5U U26C A96G A114U, 0.09; to A5G U39C A95G A135U, 1.44.
To A5G U57C A98U belongs 1.04; to A5U U19C A62G, 1.2; to A5G A114U A125G A126G, 0.03.
In the case of A5G A59G A60G A110U A129C, the self-cleavage is 1.18.
As for A5G A68G U102A U108C, the self-cleavage is 0.02.
On to A5G C113U U122C, for which the self-cleavage stood at 0.09.
Take A5U A13G A36U U87C U130C U131C: the self-cleavage was found to be 1.38.
As for A5G A30G A33U A59G, the figure is 1.25; as for A5G A18G A69G A129G, 1.3.
To A5G U19A U70C U122G belongs 1.01; to A5U A60G A64U A89G U120G, 1.48.
Take A5G A68G A125G: the self-cleavage came out at 0.47.
To A5G U9C U39G G136A belongs 2.13.
With A5U C35U A60G A68G A111G U122C, the self-cleavage was found to be 0.03.
As for C6A A22G A95G, the self-cleavage turned out to be 1.63.
As for A5G U9C A126U, the figure is 0.79; as for A5G U26A A60G, 0.49; as for A5G A18U U49C A129G, 1.27.
A5G A56G U130C: the self-cleavage came to 0.83.
A5G A22G A64G A126C: the self-cleavage worked out at 0.35.
As for A5G A33G A78G, the figure is 0.19; as for A5G A18G U39C A56G A62G U102C U103C, 0; as for A5G A55G A78U, 0.5.
To A5U U49C U72C A118G belongs 0.17.
A5G A64G U70C U103C: the self-cleavage amounted to 0.54.
To C6U A59U A96G A117G belongs 0.42.
With A5U C6G A90G A96G U130C, the self-cleavage was determined as 0.91.
For A5G A23G U37C, the self-cleavage was determined as 0.72.
As for A5G A30U U87C A114U, the figure is 0; as for A5U U9C U37C, 2.15; as for A5G A18G A91U A98G, 0.67.
For A5U A62G U124C, the self-cleavage was 0.53.
Consider A5G A18G A52G A114G U131C U132A, for which the self-cleavage came out at 0.36.
To A5G A82U U122C belongs 0.27; to A5G A111G A126G, 0.01; to A5G A24G A95G G106U, 0.02.
With C6U A63G A90G, the self-cleavage amounted to 1.06.
To A5G A56G A92G belongs 1.99; to A5G A18G U19C A116G U132C, 0.39.
As for A5U A36U U43A A110G, the figure is 0.54; as for A5G A33U A95G U102A, 1.09.
As for A5G A30G A66U A68G U120A, the figure is 0.95; as for A5G U124G U130C, 0.7; as for A5G A22G A23G A59G U87C A134G, 0.95.
Regarding A5G A54G A78U A89G A98U A111G A126G, the self-cleavage came out at 0.02.
To A5U A86G A118G U122C belongs 0.27; to A5G A13G C35U U39A A68G, 0.53.
As for A5G A24U A47G A52G A129G, the figure is 0.79; as for C6U G48A U102A A110C, 0.08; as for A5G U19A G83A G115A U122A, 0.08.
To C6U A23G A36G C45U A59G U87A U122A belongs 0.
As to A5G C40U A51G A78U, the self-cleavage was determined as 0.6.
A5G U49C U87C U103G U130C: the self-cleavage stood at 0.
As for A5G U38C A47G, the figure is 1.14; as for A5G A47G U57C A68C A78G, 0.51.
A5G A52G A67G: the self-cleavage was determined as 0.
Turning to A5G U43C A96G A116G, the self-cleavage was found to be 1.18.
As to C6U A94C U122C U139C, the self-cleavage was determined as 0.84.
For the variant A5G A62U A78G U100C U124C, the self-cleavage was 0.27.
To A5G A59G A95G A135G belongs 1.02; to A5U A51G A69G U120C, 1.24; to A5G A47C U87G, 0.47.
As for A5G A24G A118G, the self-cleavage was found to be 0.49.
As to C6A U72C A92G, the self-cleavage stood at 0.04.
To A5G U57C A78U belongs 0.33; to A5G A86U A90G U131A, 0.68.
As for A5G U39C A89G U130C U133C, the figure is 0.75.
For C6U A36U U43C A54G A66U, the self-cleavage is 0.55.
A5G U87A C109G A129U: the self-cleavage is 0.01.
As for C6A A23G U132C, the figure is 0.93; as for A5G U39A A110G A135G, 0.32; as for A5G A23G A59U, 0.51.
To A5G A116G A117G A125G belongs 0.1.
A5G A18U U87C: the self-cleavage worked out at 0.42.
As for A5G A30G A96U U102A, the figure is 1.65.
As for A5U A86G U122C, the self-cleavage was 0.76.
